Source: PubChem BioAssay AID588855 (National Center for Advancing Translational Sciences (NCATS), 2011)
Values joined by “and” are separate entries in the source; they are usually repeats but may differ in a detail not shown here. Identical values can stand only once. In all, about 410,000 compounds went through this assay and about 5,000 (1.2%) were called active. This list was built around the results that the source calls inconclusive (neither active nor inactive); the mix of calls is not that of the screen. The call rests on the fitted dose curve; in most records, active means well fitted inhibition curve with a large enough effect; inconclusive means small, poorly fitted or top-dose-only effect; inactive means no such curve, though single readings can be large or run the other way. Where the call is inconclusive, the potency comes from a doubtful curve fit.

Experiment: qHTS for Inhibitors of TGF-b; further: nearly all actives have a fitted effect of over 65% in size
Details: HepG2 CAGA-GFP TGF-b/SMAD3 reporter, GFP fluorescence, 18 h, TGF-beta stimulated, 500 pg/mL final; series mostly up to 46.1 µM
Method in brief: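 Read-out: total well GFP (ex488/em500-530) summed from mean per-cell fluorescence. Cells: HEPG2 CAGA-GFP, 1% FBS DMEM, 18 h at 37 degrees C with 500 pg/mL final TGF-beta. Unstimulated wells served as the full-inhibition control; stimulated DMSO wells = 0%.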
Potency means the concentration at half of the fitted maximal effect; tags describe the fitted curve by direction and shape.

| Structure (SMILES) | Potency |
| --- | --- |
| Cc1ccc(N(C(=O)C(F)(F)F)C(C(=O)NC2CCCCC2)c2cccs2)cc1 (stereo unspecified) | inactive |
| CCn1c(SCC(=O)Nc2nccs2)nnc1-c1ccccn1 | inconclusive: 6.31 µM [inhibitor, partial curve, poor fit] |
| COc1ccc(CNC(=O)c2ccc3c(=O)n(-c4ccccc4)c(=O)[nH]c3c2)cc1 | inactive |
| CC(=O)c1ccc(Nc2nc(C(N)Cc3ccc(Cl)cc3)cs2)cc1 (stereo unspecified) | inconclusive: 35.5 µM [inhibitor, single point] |
| Cc1ccc(Nc2c(-c3ccc(N4CCOCC4)cc3)nc3ncccn23)c(C)c1 | inconclusive: 35.5 µM [inhibitor, single point] |
| COc1ccc(-n2sc3c(c2=S)-c2cc(OC)ccc2NC3(C)C)cc1 | inactive |
| Cc1ccc(NC(NC(=O)c2cccnc2)C(Cl)(Cl)Cl)cc1 (stereo unspecified) | inactive |
| C=C(C)CN=C1SC(C(=O)Nc2sc3c(c2C(=O)OC)CCC3)C(N)=C1C(N)=O (stereo unspecified) | inconclusive: 22.4 µM [inhibitor, single point] |
| CC(C)OC(=O)NCCOC(=O)Nc1ccc(Cl)cc1 | inactive |
| CSc1nc(C(C)C)ccc1CNC(=O)CC(C)c1ccccc1 (stereo unspecified) | inconclusive: 11.2 µM [inhibitor, partial curve, poor fit] |
| Cc1cccc(Cn2c(CNC(=O)c3ccccc3)nc3ccccc32)c1 | inconclusive: 17.8 µM [inhibitor, single point] |
| COc1cccc(/C=C/C(=O)OCC(=O)Nc2cc(C(F)(F)F)ccc2Cl)c1 | inconclusive: 1.58 µM [inhibitor, partial curve] |
| Cc1c(Cc2ccccc2)c(=O)oc2cc(OCC(=O)N[C@@H](Cc3ccccc3)C(=O)O)ccc12 | inactive |
| Cc1cc(C)c(O)c(-c2n[nH]c3c2C(c2cccc(O)c2)N(Cc2ccco2)C3=O)c1 (stereo unspecified) | inconclusive: 22.4 µM [inhibitor, single point] |
| CCC1(C)Cc2c(sc3nnn(CC(=O)Nc4ccc(C)cc4)c(=O)c23)CO1 (stereo unspecified) | inconclusive: 35.5 µM [inhibitor, single point] |
| O=C(Nc1cccnc1)c1ccc([N+](=O)[O-])o1 | inconclusive: 22.4 µM [inhibitor, single point] |
| CCc1ccc(N2CC(c3nc4ccccc4n3Cc3ccccc3C)CC2=O)cc1 (stereo unspecified) | active: 10 µM |
| Cc1ccc(S(=O)(=O)N(C)C)cc1NC(=O)CSc1ncc(C(F)(F)F)cc1Cl | inactive |
| CCOc1ccc(S(=O)(=O)Nc2cccc(C(=O)NCC(c3ccccc3)N(C)C)c2)cc1 (stereo unspecified) | inconclusive: 12.6 µM [inhibitor, partial curve] |
| CCC(=O)c1ccc2ncccc2c1 | inactive |
| COC(=O)CCCCCN1C(=O)NC(C2CC2)C(C(=O)OCc2ccccc2)=C1C (stereo unspecified) | inconclusive: 5.62 µM [inhibitor, single point] |

| Structure (SMILES) | Potency |
| --- | --- |
| COc1ccc(C2/C=C\CN(C(=O)Nc3ccc(C(F)(F)F)cc3)CC(=O)N2Cc2ccc(F)cc2)cc1 (stereo unspecified) | inconclusive: 35.5 µM [inhibitor, single point] and inconclusive: 17.8 µM [inhibitor, single point] |
| Cc1cccc(CNC(=O)CCCN2C(=O)c3cccnc3Oc3ccccc32)c1 | inconclusive: 22.4 µM [inhibitor, partial curve, poor fit] |
| Cc1cccc(NC(=O)CSCC(=O)Nc2cc(Cl)ccc2N2CCN(C)CC2)c1 | inconclusive: 25.1 µM [inhibitor, single point] |
| CCOc1ccc(S(=O)(=O)NCc2ccccn2)cc1NC(=O)c1ccccc1F | inactive |
| CCc1ccccc1NS(=O)(=O)c1ccc2[nH]cc(C(=O)NC3CCCC3)c(=O)c2c1 | inconclusive: 10 µM [inhibitor, partial curve, poor fit] and inconclusive: 15.8 µM [inhibitor, single point] |
| CCN(CC)c1ccc(NC2=C(Cl)C(=O)c3ccccc3C2=O)cc1 | inconclusive: 10 µM [inhibitor, partial curve, poor fit] |
| Cc1ccc(NC(=O)Cn2nc(C(F)(F)F)c3c2CCC3)cc1C | inconclusive: 6.31 µM [inhibitor, single point] |
| CCOC(=O)c1ccc(NC(=S)N(CCCN2CCCCC2)Cc2ccco2)cc1 | active: 0.631 µM |
| COc1ccc(NC(=S)N(CCCN2CCCC2)Cc2cccs2)cc1 | inactive |
| N#Cc1ccc(NC(=S)N2CCC3CC2c2cc(-c4ccc5c(c4)OCO5)ccc23)cc1 (stereo unspecified) | inconclusive: 22.4 µM [inhibitor, partial curve, poor fit] |
| CCOc1ccccc1C(=O)Nc1ccc(-n2nncc2C(C)(C)C)cc1 | inconclusive: 3.16 µM [inhibitor, partial curve, poor fit] |
| O=C(CNc1ccc(C(F)(F)F)cc1)Nc1cccc(S(=O)(=O)N2CCCCC2)c1 | inconclusive: 25.1 µM [inhibitor, partial curve, poor fit] |
| COc1cccc(C(C(=O)NC2CCCCC2)N(C(=O)Cc2cccs2)c2ccc(-n3cnnn3)c(OC)c2)c1 (stereo unspecified) | inconclusive: 35.5 µM [inhibitor, single point] |
| COc1ccccc1N1CCN(C2CCCCC2NS(=O)(=O)c2ccccc2)CC1 (stereo unspecified) | inactive |
| CSc1ccc(S(=O)(=O)Nc2ccc(F)cc2)cc1 | inconclusive: 35.5 µM [inhibitor, single point] |
| COc1cccc(Nc2nc(C(N)Cc3ccc(C(F)(F)F)cc3)cs2)n1 (stereo unspecified) | inconclusive: 25.1 µM [inhibitor, partial curve, poor fit] |
| CCCc1nc2oc3c(NCc4ccccn4)ncnc3c2c2c1COC(C)(C)C2 | inactive |
| COc1ccc(-c2nc3ccc(C)cn3c2Cc2cccc(F)c2)cc1OC | inconclusive: 0.562 µM [inhibitor, full curve, poor fit] |
| O=C(Nc1cccc(C(F)(F)F)c1)C1CCN(S(=O)(=O)c2cccc3nsnc23)CC1 | inconclusive: 15.8 µM [inhibitor, partial curve, poor fit] |
| COc1ccccc1/C=C1\C=Cc2ccccc21 | inactive |
